A short description of test [1]: qHTS drug screen for cell cycle checkpoint inhibitors in PARPi-resistant BRCA-mutant ovarian cancer cell lines. (AID 1963452). The following applies: PEO1/OlaR viability, CellTiter-Glo luminescence, 96 h. The method, boiled down:
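PEO1, PEO4 and PEO1/OlaR ovarian cancer cells, 600 per well, exposed 96 h at 37C to a dilution series. Viability read by CellTiter-Glo luminescence, normalized to DMSO and empty wells; activity summarized as Z-AUC.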

Test [2] can be described thus: qHTS for identification of novel therapeutic agents for treatment of microphthalmiaassociated transcription factor (MiT) renal cell carcinoma (RCC) (AID 1963991). The note with it: CellTiter-Glo, 48 h; for z-score: stronger effect = lower value. A digest of the protocol:
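Curves over 11 concentrations were fitted to CellTiter-Glo luminescence, scaled between empty wells (0%) and DMSO (100%) viability. Cells were UOK109, UOK124 and UOK145 TFE3-fusion RCC lines at 500/well, exposed 48 hours at 37 C.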

The mark [3] stands for this setting: measured here: PEO1 parental viability.
Setting [4] is: TFE3-RCC UOK109 viability, measured here: UOK109 Z-AUC.
Where [5] appears, read: TFE3-RCC viability, measured here: UOK124 Z-AUC.
The mark [6] stands for this setting: TFE3-RCC viability, measured here: UOK124 cell viability.
Setting [7] is: TFE3-RCC viability, measured here: UOK145 Z-AUC.
[8] abbreviates: TFE3-RCC viability, measured here: UOK145 cell viability.

This is one part of the list. Shown are side measurements of this screen, not its main read-out; they come without a call. For some assays here: Compounds called inactive in the main read-out are mostly missing here. The note in brackets gives the kind of curve behind each potency; many fits are weak.
Tags tell the direction and shape of the fitted curve.

As for `COc1cc(OC2CCN(C)CC2)ccc1Nc1ncc2c(n1)n(C1CCCC1)c(=O)n2C`, the AC50 was 11 µM [falling, partial curve] in test [1] (setting [3]); 11 µM [falling, partial curve] in test [1] (measured here: PEO4 viability); 18.7 µM [falling, partial curve] in test [2] (setting [6]); 20.9 µM [falling, partial curve] in test [2] (setting [8]). Also, the z-score is -0.526 in test [2] (setting [4]), -0.0753 in test [2] (setting [5]) and -0.355 in test [2] (setting [7]).

Consider `CC(N[C@H]1CCCC[C@H]1NC(=O)c1ccc(Cl)cc1)c1cccc2ccccc12` (some centres not stated), for which the AC50 in test [1] (setting [3]) is 17.4 µM [falling, partial curve]; in test [1] (measured here: PEO4 viability), 17.4 µM [falling, single point]; in test [2] (setting [6]) it was 16.6 µM [falling, partial curve]; in test [2] (setting [8]), 2.96 µM [falling, partial curve, poor fit]. Further, the z-score in test [2] (setting [4]) was -1.53; in test [2] (setting [5]) it was 0.602; in test [2] (setting [7]), -0.136.

For `O=C(Nc1nc2cccc(-c3ccc(CN4CCS(=O)(=O)CC4)cc3)n2n1)C1CC1`, the AC50 in test [1] (setting [3]) was 24.5 µM [falling, single point]; in test [1] (measured here: PEO4 viability), 24.5 µM [falling, single point]; in test [2] (setting [6]), 33.2 µM [falling, partial curve, poor fit]; in test [2] (setting [8]), 23.5 µM [falling, single point]. For the same compound, the z-score is 0.804 in test [2] (setting [4]), -0.0758 in test [2] (setting [5]) and 0.222 in test [2] (setting [7]).

As for `CCN(CC)CCNC(=O)c1ccc2nc(-c3ccccc3)c(-c3ccc(CN4CCC(n5c(=O)[nH]c6ccccc65)CC4)cc3)nc2c1`, the AC50 in test [1] (setting [3]) is 19.5 µM [falling, single point]; in test [1] (measured here: PEO4 viability), 2.19 µM [falling, full curve]; in test [2] (setting [6]), 1.66 µM [falling, full curve]; in test [2] (setting [8]) it was 3.32 µM [falling, full curve]. In addition, the z-score in test [2] (setting [4]) is -0.0586; in test [2] (setting [5]), -1.8; in test [2] (setting [7]) it was -1.4.

Consider `O=C1C(Cl)=C(NCCN2CCOCC2)C(=O)c2ncccc21`, for which the concentration at half-maximal activity (AC50) in test [1] (setting [3]) is 4.36 µM [falling, full curve]; in test [1] (measured here: PEO4 viability) it was 3.09 µM [falling, full curve]; in test [2] (setting [6]) it was 3.72 µM [falling, full curve]; in test [2] (setting [8]), 6.62 µM [falling, full curve]. Further, the z-score in test [2] (setting [4]) is -0.642; in test [2] (setting [5]) it was -1.11; in test [2] (setting [7]), -0.71.

As for `CN(CC(=O)N(Cc1ccc(C2CCCCC2)cc1)c1ccc(C(=O)O)c(O)c1)S(=O)(=O)c1c(F)c(F)c(F)c(F)c1F`, the AC50 is 27.5 µM [falling, single point] in test [1] (setting [3]); 24.5 µM [falling, single point] in test [1] (measured here: PEO4 viability); 18.7 µM [falling, partial curve] in test [2] (setting [6]); 29.6 µM [falling, single point] in test [2] (setting [8]). Besides, the z-score was determined as 0.184 in test [2] (setting [4]), 0.0603 in test [2] (setting [5]) and 0.479 in test [2] (setting [7]).

Consider `CC(C)(O)CC(=O)NCCn1ccc2ncnc(Nc3ccc(Oc4cccc(C(F)(F)F)c4)c(Cl)c3)c21`, for which the AC50 is 15.5 µM [falling, partial curve] in test [1] (setting [3]); 15.5 µM [falling, partial curve] in test [1] (measured here: PEO4 viability); 20.9 µM [falling, partial curve] in test [2] (setting [6]); 3.72 µM [falling, full curve] in test [2] (setting [8]). Further, the z-score in test [2] (setting [4]) was -1.7; in test [2] (setting [5]), -0.337; in test [2] (setting [7]), -0.0583.

As for `Cc1ncc(-c2ccnc(Nc3ccc(S(C)(=O)=O)cc3)n2)n1C(C)C`, the AC50 in test [1] (setting [3]) is 1.55 µM [falling, full curve]; in test [1] (measured here: PEO4 viability), 1.1 µM [falling, full curve]; in test [2] (setting [6]), 3.72 µM [falling, full curve]; in test [2] (setting [8]), 2.35 µM [falling, full curve]. Further, the z-score is -0.531 in test [2] (setting [4]), 0.286 in test [2] (setting [5]) and -0.228 in test [2] (setting [7]).

With `COc1cc(Nc2ncc3c(n2)-c2ccc(Cl)cc2C(c2c(F)cccc2OC)=NC3)ccc1C(=O)O`, the AC50 in test [1] (setting [3]) is 7.76 µM [falling, partial curve]; in test [1] (measured here: PEO4 viability) it was 0.0174 µM [falling, full curve, poor fit]; in test [2] (setting [6]), 4.18 µM [falling, partial curve, poor fit]; in test [2] (setting [8]), 26.4 µM [falling, partial curve, poor fit]. Moreover, the results for the z-score in test [2] (setting [4]), in test [2] (setting [5]) and in test [2] (setting [7]) were -0.08, -0.391 and -0.209, respectively.

On to `Cc1nn(Cc2ccccc2Cl)c(C)c1CN(C)CC(O)COc1ccc(Cl)cc1` (configuration not stated), for which the AC50 was 19.5 µM [falling, single point] in test [1] (setting [3]); 21.9 µM [falling, single point] in test [1] (measured here: PEO4 viability); 23.5 µM [falling, partial curve] in test [2] (setting [6]); 20.9 µM [falling, partial curve, poor fit] in test [2] (setting [8]). The z-score in test [2] (setting [4]) turned out to be 0.631; in test [2] (setting [5]), 0.378; in test [2] (setting [7]) it was 0.506.

With `CCCCCCCCc1ccc(CCC(N)(CO)CO)cc1`, the AC50 was 17.4 µM [falling, single point] in test [1] (setting [3]); 21.9 µM [falling, single point] in test [1] (measured here: PEO4 viability); 16.6 µM [falling, partial curve] in test [2] (setting [6]); 23.5 µM [falling, partial curve] in test [2] (setting [8]). Further, the z-score in test [2] (setting [4]) is 0.207; in test [2] (setting [5]), -0.429; in test [2] (setting [7]) it was 0.469.

For the origin of these results see PubChem BioAssay (NCATS).
